Data on one molecule can be found in patent US20210147548A1 (INSTITUTE OF BIOPHYSICS CHINESE ACADEMY OF SCIENCES, published 2021).

For the assay, the target named is T1, PD-L1 on IFNAR1-/- A20 cells (UniProt Q9EP73).
T1 construct: whole, on cells; Endogenous PD-L1 of A20 cells
Description: flow cytometry on IFNAR1-/- A20 cells expressing PD-L1, detected with PE-anti-human IgG Fc; '-' means no binding.

T1 sequence (Q9EP73 19-290 limits assumed): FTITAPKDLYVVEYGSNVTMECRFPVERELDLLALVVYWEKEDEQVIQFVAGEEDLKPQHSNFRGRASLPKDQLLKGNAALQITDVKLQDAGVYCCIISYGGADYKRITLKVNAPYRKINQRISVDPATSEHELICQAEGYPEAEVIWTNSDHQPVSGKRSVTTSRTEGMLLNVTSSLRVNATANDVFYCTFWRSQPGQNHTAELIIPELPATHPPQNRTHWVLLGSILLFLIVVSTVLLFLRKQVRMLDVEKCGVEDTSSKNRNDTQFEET

B1: IFN-Fc (Fc fusion)
chain: CDLPHTYNLGNKRALTVLEEMRRLPPLSCLKDRKDFGFPLEKVDNQQIQKAQAILVLRDLTQQILNLFTSKDLSATWNATLLDSFCNDLHQQLNDLKACVMQEPPLTQEDSLLAVRTYFHRITVYLRKKKHSLCAWEVIRAEVWRALSSSTNLLARLSEEKESGGGGSGGGGSGGGGSGGGGRT[skipping human IgG1 Fc with changes and a few adjoining residues]
notes: also called IFNα-Fc; mIFNα4-Fc
Take B1: the binding result is on record as “no binding”.
